Data from the RNAGym collection of RNA variant scans (doi:10.1073/pnas.2313332121).
This sample is rich in variants without activity.

B1: TPR 5TU (parent)
chain: GGAUCUUCUCGAUCUAACAAAAAAGACAAAUCUGCCACAAAGCUUGAGAGCAUCUUCGGAUGCAGAGGCGGCAGCCUUCGGUGGCGCGAUAGCGCCAACGUUCUCAACUAUGACACGCAAAACGCGUGCUCCGUUGAAUGGAGUUUAUCAUG

Variants of: B1
Experiment: polymerase ribozyme fitness, log enrichment relative to wild type (log ratio); higher = more active; in vitro selection for triplet polymerase activity
Summary of the method: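 Only genotypes with ≥10 input reads and ≥1 read per output were kept after Illumina sequencing of input and output libraries. These libraries were PCR-built, transcribed mutants of each subunit of a heterodimeric triplet polymerase ribozyme, each put through one triplicate in vitro selection round with frozen incubation at −7 °C, gel excision of extended constructs, streptavidin-bead capture and RT-PCR. Fitness is a logarithmic ratio of genotype enrichment to wild-type enrichment, from inverse-variance-weighted replicate averages, with the logarithm in base 2.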

Polymerase ribozyme fitness (log ratio), ≤ -4.2:
GGAUCUUCUCGAUCUAACAAAAAAGACAAAUCUGCCACAAACCUUGAGAGCAUCUUCGGAUGCAGAGGCGGCAGCCUUCGGUGGCGCGAUAGCGACAACGUUCUCAACUAUGACACGCAAAACGCGUGCUCCGUGGAAUGGAGUUUAUCAUG [G42C C95A U135G]
GGAUCUUCUCGAUCUAACAAAAAAGACAAAUCUGCCACAAACCUUGAGAGCAUCUUCGGAUGCAGAGGCGGCAGCCUUCGGUGGCGCGAUAGCGCGAACGUUCUCAACUAUGACACGCAAAACGCGUGCUCCGUUGAAUGGAGUUUAUCAUG [G42C C96G]
GGAUCUUCUCGAUCUAACAAAAAAGACAAAUCUGCCACAAACCUUGAGAGCAUCUUCGGAUGCAGAGGCGGCAGCCUUCGGUGGCGCGAUAGCGCUAAUGUUCUCAACUAUGACACGCAAAACGCGUGCUCCGUUGAAUGGAGUUUAUCAUG [G42C C96U C99U]
GGAUCUUCUCGAUCUAACAAAAAAGACAAAUCUGCCACAAACCUUCAGAGCAUCUUCGGAUGCAGAGGCGGCAGCCUUCGGUGGAGCGAUAGCGCCAACGUUCUCAACUAUGACGCGCAAAACGCGUGCUCCAUUGAGUGGAGUUUAUCUUG [G42C G46C C85A A115G G133A A138G A150U]
GGAUCUUCUCGAUCUAACAAAAAAGACAAAUCUGCCACAAACCUUGAAAGCAUCUUCGGAUGCAGAGGCGGCAGGCUUCGGUGGCGCGAUAGCGCUAACGUUCACAACUAUGACACGCAAAACGCGUGCUCCGUUGAAUGGAGUUUAUCAUG [G42C G48A C75G C96U U104A]
GGAUCUUCUCGAUCUAACAAAAAAGACAAAUCUGCCACAAACCUUGACAGCAUCUUCGUAUGCAGAGGCGGCAGCCUUCGGUGGCGCGAUAGCGACAACGUUCUCAACUAUGACACGCAAAACGCGUGCUCCGUUAAGUGGAGUUUAUCAUG [G42C G48C G59U C95A G136A A138G]
GGAUCUUCUCGAUCUAACAAAAAAGACAAAUCUGCCACAAACCUUGAGAGCAUCUUCCGCAGCAGAGGCGGCAGCCUUCGGUGGCGCGAUAGCGCCAACGUUCUCAACUAUGACACGCAUAACGCGUGCUCCGUUGAAUGGAGUUUAUCAUG [G42C G58C A60C U61A A120U]
GGAUCUUCUCGAUCUAACAAAAAAGACAAAUCUGCCACAAACCUUGAGAGCAUCUUCUGAUGCAGAGGCGGCAGACGUGGGUGGCGCGAUAGCACCAACGUUCUCAAUUAUGACACGUAAAACGCGUGCGUCGUUGAAUGGAGUUUAUCAUG [G42C G58U C75A U77G C79G G94A C108U C118U U130G C131U]
GGAUCUUCUCGAUCUAACAAAAAAGACAAAUCUGCCACAAACCUUGAGAGCAUCUUCGAAUGCAGAGGCGGCAGCCUUCGGUGGCGCGAUAGCGCUAACGUUCUCAACUAUGACACGCAAAUCGCGUGCUCCGUUGAAUGGAGUUCAUCAUG [G42C G59A C96U A122U U146C]
GGAUCUUCUCGAUCUAACAAAAAAGACAAAUCUGCCACAAACCUUGAGAGCAUCUUCGGAUACAGAGGCGGCAGCCUUCGGUGGCGCGAUAGCGCCAACGUUCUCAACUAUGACACGCAAAACGCGUGCUCCGUUGAAUGGAGUUUAUCAUG [G42C G62A]
GGAUCUUCUCGAUCUAACAAAAAAGACAAAUCUGCCACAAACCUUGAGAGCAUCUUCGGAUACAGAGGCGGCAGCCUUCGGUGGCGCGAUAGCGCAAACGUUCUCAACUAUGACACGCAAAACGCGUGCUCCGUUGAAUGGAGAUUAUCAGG [G42C G62A C96A U144A U151G]
GGAUCUUCUCGAUCUAACAAAAAAGACAAAUCUGCCACAAACCUUGAGAGCAUCUUCGGAUCCAGAGGCGGCCGCCUUCGGUGGCGCGAUAGCUCCAACGUUCUCAACUAUGACACGGAUAACGCGUGCUCCCUUGAAUGGAGUUUAUCAUG [G42C G62C A73C G94U C118G A120U G133C]
GGAUCUUCUCGAUCUAACAAAAAAGACAAAUCUGCCACAAACCUUGAGAGCAUCUUCGGAUGCAGAGGCGGCAGCCUUCGGUGUCGCGAUAGCGCCAACGUUCUCAACUAUGACACGCAAAACGCGUGCUCCGUUGAGUGGAGUUGAUCAUG [G42C G84U A138G U146G]
GGAUCUUCUCGAUCUAACAAAAAAGACAAAUCUGCCACAAACCUUGAGAGCAUCUUCGGAUGCAGAGGCGGCAGCCUUCGGUGGCGCGAUACCGCCAACGUUCUCAACUAUGACACGCAAAACGCGUGCUCAGUUGAAAGGAGUUUAUCAUG [G42C G92C C132A U139A]
GGAUCUUCUCGAUCUAACAAAAAAGACAAAUCUGCCACAAACCUAGAGAGCCUCUUCGGAUGCAGAGGCGGCAGCCGUCGGUGGAGCGAUAGCGCCAACGUUCUCAACUAUGACAGGCAAAACGCGUGCUCCGUUGAAUGGAGUUUAUCAUG [G42C U45A A52C U77G C85A C116G]
GGAUCUUCUCGAUCUAACAAAAAAGACAAAUCUGCCACAAACCUUGAGAGCAACUUCGGAUGCAGAGGCGGCAGCCUUAGGUGUCGCGAUAGCGCCAACGUUCUCAAAUAUGACACGCAAAACGCGUGCUGCGUUGAAUGGAGUUUAUCAUG [G42C U53A C79A G84U C108A C131G]
GGAUCUUCUCGAUCUAACAAAAAAGACAAAUCUGCCACAAACCUUGAGAGCAACUUCGGAUGCAGAGGCGGCAGCCUUCGGUGGCGCGAUAACGCCAACGUUCUCAACUAUGACACGCAAAACGCGUGCUCCGAUGAAUGGAGUUUAUCAUG [G42C U53A G92A U134A]
GGAUCUUCUCGAUCUAACAAAAAAGACAAAUCUGCCACAAACCUUGAGAGCAACGUCGGAUGCAGAGGCGGCAGCUUUCGGUGGCGCGAUAGAGCCAACGUUCUCAACUAUGACACGCAAAACGCGUGCUCCGUUGAAUGGAGUUUAUCAUG [G42C U53A U55G C76U C93A]
GGAUCUUCUCGAUCUAACAAAAAAGACAAAUCUGCCACAAACCUUGAGAGCAACGUCGGAUGCAGAGGCGGCAGCCCUCGGUGGCGCGAUUGCGCCAACGUGCUCAACUAUGACACGCAAAACGCGUGCUCCGUUGAAUGGAGUUUAUCAUG [G42C U53A U55G U77C A91U U102G]
GGAUCUUCUCGAUCUAACAAAAAAGACAAAUCUGCCACAAACCUUGAGAGCAUCAUCGGAUGCAGAGGCCGCAGCCUUCGGUGGCGCGAUAGCGCUAACGUUCUCAACUAUGACACGCAAAACGCGUGCUCCGUUGAAUGGAGUUUAUCAUG [G42C U55A G70C C96U]
GGAUCUUCUCGAUCUAACAAAAAAGACAAAUCUGCCACAAACCUUGAGAGCAUCAUCGGAUGCAGAGGCGGCAGCCUUCGGAGGCGCGAUAGCGCCAACGUUCUCUACUAUGACACGCAAAACGCGUGCUCCGUUGAAUGGAGUUUAUCAUG [G42C U55A U82A A106U]
GGAUCUUCUCGAUCUAACAAAAAAGACAAAUCUGCCACAAACCUUGAGAGCAUCGUCGGAUGCAGAGGCGGCAGGCUGCGGUGGCGCGAUAGCGCCAACGUUCUCAACUAUGACACGCAAAACGCGUGCUCCGUUGAAUGGAGUUUAUCAUG [G42C U55G C75G U78G]
GGAUCUUCUCGAUCUAACAAAAAAGACAAAUCUGCCACAAACCUUGAGAGCAUCUACGGAUGCAGAGGCGGCAGCCUUCGGUGGCGCGAUAGCGCCAACGUUCUCAACUAUGACACGCAAAACGCGUGCUCCGUUGAAUGCAGUUUAUCAUG [G42C U56A G141C]
GGAUCUUCUCGAUCUAACAAAAAAGACAAAUCUGCCACAAACCUUGAGAGCAUCUGCGGAUGCAGAGGCGGCAGCCUUCGGUGGCGCGAUAGCGCCAACGUUCUCAACUAUGAUACGCAAAACGCGAGCUCCGUUGACUGGAGUUUAUCAUG [G42C U56G C114U U127A A138C]
GGAUCUUCUCGAUCUAACAAAAAAGACAAAUCUGCCACAAACCUUGAGAGCAUCUGCGGAUGCAGAGGCGGCAGCCUUCGGUGGCGCGAUAGCGCCAACGUUCUCAACUAUGACACGCAAAACGCGUGCUCCGUUGAAUGGAGAUUAUCAUG [G42C U56G U144A]
GGAUCUUCUCGAUCUAACAAAAAAGACAAAUCUGCCACAAACCUUGAGAGCAUCUUCGGAUGCAGAGGCGGCAGCCUUCGGGGGCGCGAUAGCGCCAACGUUCACAACUAUGACAUGCAAAACGCGUGCUCCGUUGGAUGGAGUUUAUCAUA [G42C U82G U104A C116U A137G G152A]
GGAUCUUCUCGAUCUAACAAAAAAGACAAAUCUGCCACAAAUCUUGAGAGCCUCUUCGGAUGCAGAGGAGGCAGCCUUCGGUGGCGCGAAAGUGCCAACGUUCUCAACUAUGACACGCAAAACGCGUGCUCCGUUGAAUGGAGUUUAUCAUG [G42U A52C C69A U90A C93U]
GGAUCUUCUCGAUCUAACAAAAAAGACAAAUCUGCCACAAAUCUUGAGAGCAUCUUCGGUUGCAGAGGCGGCAGCCUUCGUGGGCGCGAUAGCGCUAAGCUUCUCAACUAUGACACGCAAAACGCGUGCUCCGGUGAAUGGAGUUUAUCAUG [G42U A60U G81U U82G C96U C99G G100C U134G]
GGAUCUUCUCGAUCUAACAAAAAAGACAAAUCUGCCACAAAUCUUGAGAGCAUCUUCGGAUGCCGAGGCGGCAGCCUUUGGUAGCGCGAUAGCGCCAACGUUCUCAACUAUGACACGCAAAACGCGUGCUCCGUUGAAUGGAGUUUAUCAUG [G42U A64C C79U G83A]
GGAUCUUCUCGAUCUAACAAAAAAGACAAAUCUGCCACAAAUCUUGAGAGCAUCUUCGGAUGCCGAGGCGGCAGCCUUCGGUGGCGCUAUAGCGCCAACGUUCUCAACUAUGACACGCAAAACGCGUACUCCGUUGAAUGGAGUUUAUCAUG [G42U A64C G88U G128A]
GGAUCUUCUCGAUCUAACAAAAAAGACAAAUCUGCCACAAAUCUUGAGAGCAUCUUCGGAUGCAGAGGCGGCAGCCUUCGGUGGCGCGAUAGCGCCAACGUUCUCAACUAUGACACGCAAGACGCGUGCUCCGUUGAAUGGAGUUUAUCAUG [G42U A121G]
GGAUCUUCUCGAUCUAACAAAAAAGACAAAUCUGCCACAAAUCUUGAGAGCAUGUUCGGAUGCAGAGGCGGCAGCCUUCGGUGGCUCGAUAGCGCCAACGUUCUCAACUAUGACACGCAAAACUCGUGCUCCGUUGAAUGGAGUUUAUCAUG [G42U C54G G86U G124U]
GGAUCUUCUCGAUCUAACAAAAAAGACAAAUCUGCCACAAAUCUUGAGAGCAUCUUCGGAUGAAGAGGUGGCAGCCUUCGGUGGGGCGAUAGCGCCACCGUUCUCAUCUAUGACACGCAAAACGCGUGCUCCGUUGAAUGGAGUUUAUCAUG [G42U C63A C69U C85G A98C A107U]
GGAUCUUCUCGAUCUAACAAAAAAGACAAAUCUGCCACAAAUCUUGAGAGCAUCUUCGGAUGCAGAGGUGGCAGCCUUCGGUGGCGAGAUAGCGCCAACGUUCUCAACUAUGACACGCAAAUCGCGUGCUCCGUUGAAUGGAGUUUAUCAUG [G42U C69U C87A A122U]
GGAUCUUCUCGAUCUAACAAAAAAGACAAAUCUGCCACAAAUCUUGAGAGCAUCUUCGGAUGCAGAGGCGGCAGCCUUCGGUGGCGCGAUAGCGCCAACGUUCUCAACUAUGACAGGCAAAACGAGUGCUCCGUUGAAUGGAGUUUAUCAUG [G42U C116G C125A]
GGAUCUUCUCGAUCUAACAAAAAAGACAAAUCUGCCACAAAUCUUGACAGCAUCUUCGGAUGCAGAGGCGUCAGCCUACGGUGGCGUGAUAGCGCGAGCGUUCUCAACUAUGACACGCAAAACGCGUGCUCCGUUGAAUGGAGUUUAUCAUG [G42U G48C G71U U78A C87U C96G A98G]
GGAUCUUCUCGAUCUAACAAAAAAGACAAAUCUGCCACAAAUCUUGACAGCAUCUUCGGAUGCAGAGGCGGCAGCCUUCGGUGGCGCGAUAACGCCAACGUUCUCAUCUAUGACACGCAAAACGCGUGCUCCGUCGAAUGGAGUUUACCAUG [G42U G48C G92A A107U U135C U148C]
GGAUCUUCUCGAUCUAACAAAAAAGACAAAUCUGCCACAAAUCUUGAUAGCAUGUUCGGAUGCAGAGGCGGCAGCCUUCGGUGGCGUGAUAGCGCCAACGUUCUCAACUAUGACACGCAAAACGCGUGCUCCGUUGAAUGGAGUUUAUCAUG [G42U G48U C54G C87U]
